Measurements as given in paper PMC4336329 (PLoS ONE, 2015).
Hit rate of the full screen: of about 310,000 compounds, about 14,000 (4.5%) showed an effect of 50% or more. Effects have a minus sign here. The list shows a part of the results.

These compounds were tested against human ether-à-go-go-related gene (hERG) potassium channel (human, UniProt Q12809) (assay: primary screen, population patch clamp on CHO cells stably expressing hERG).
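Note: peak tail current of the secondary pulse compared with the same well before compound.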

Sequence of human ether-à-go-go-related gene (hERG) potassium channel (Q12809 whole entry, looked up): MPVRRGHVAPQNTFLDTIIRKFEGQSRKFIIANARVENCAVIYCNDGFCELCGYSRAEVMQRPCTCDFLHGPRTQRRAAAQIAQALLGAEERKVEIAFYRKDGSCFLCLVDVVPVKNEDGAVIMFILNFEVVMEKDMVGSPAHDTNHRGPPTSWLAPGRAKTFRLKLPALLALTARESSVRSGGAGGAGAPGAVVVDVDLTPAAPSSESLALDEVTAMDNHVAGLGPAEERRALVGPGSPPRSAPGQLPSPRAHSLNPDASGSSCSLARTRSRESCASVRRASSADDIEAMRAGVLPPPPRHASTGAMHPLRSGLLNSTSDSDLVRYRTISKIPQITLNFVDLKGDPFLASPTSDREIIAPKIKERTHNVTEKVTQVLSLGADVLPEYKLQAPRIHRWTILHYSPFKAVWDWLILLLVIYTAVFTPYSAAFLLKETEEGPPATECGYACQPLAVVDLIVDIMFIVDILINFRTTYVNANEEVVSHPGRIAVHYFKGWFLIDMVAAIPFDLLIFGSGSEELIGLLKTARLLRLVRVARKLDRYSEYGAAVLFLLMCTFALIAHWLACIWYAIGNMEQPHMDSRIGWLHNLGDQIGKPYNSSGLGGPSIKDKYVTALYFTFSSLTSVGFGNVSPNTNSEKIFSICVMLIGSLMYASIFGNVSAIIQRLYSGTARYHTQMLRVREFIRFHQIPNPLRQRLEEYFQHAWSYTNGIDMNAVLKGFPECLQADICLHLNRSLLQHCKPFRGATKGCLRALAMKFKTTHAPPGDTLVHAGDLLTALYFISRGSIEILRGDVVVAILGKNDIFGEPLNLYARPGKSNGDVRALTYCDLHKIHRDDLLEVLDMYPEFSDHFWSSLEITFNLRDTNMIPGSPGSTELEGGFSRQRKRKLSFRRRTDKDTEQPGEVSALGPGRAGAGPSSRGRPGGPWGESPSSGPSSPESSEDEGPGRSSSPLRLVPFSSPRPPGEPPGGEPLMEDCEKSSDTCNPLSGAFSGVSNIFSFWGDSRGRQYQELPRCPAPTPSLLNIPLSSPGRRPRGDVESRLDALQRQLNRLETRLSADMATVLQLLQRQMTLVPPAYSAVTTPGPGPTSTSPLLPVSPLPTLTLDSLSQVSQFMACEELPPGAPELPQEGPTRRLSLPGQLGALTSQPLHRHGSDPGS

| Compound | hERG current change (%, negative = inhibition) at 10uM |
| --- | --- |
| CCOc1ccccc1OC(C)C(=O)Nc1ccc(S(=O)(=O)N2CCCC2)cc1 (centres unmarked) | -4.66% |
| Cn1c(CC(=O)Nc2ccccc2Cl)nnc1SCC(=O)NC1=NCCS1 | 14.7% |
| CC(C)Cc1nnc(NC(=O)Cc2cccs2)s1 | 12.4% |
| O=c1sc(N2CCN(c3ccc(F)cc3)CC2)nc2ccsc12 | -1.59% |
| Cc1cc(C(=O)N2CCN(C(c3ccccc3)c3ccccc3)CC2)on1 | -24.2% |
| CCOC(=O)c1c(OCC)[nH]c2ccc(O)cc12 | -2.73% |
| O=C(CN(Cc1ccccc1)C(=O)CNS(=O)(=O)c1ccc(F)cc1)NCC1CCCO1 (centres unmarked) | 2.32% |
| CC(C)n1c(SCc2ccc(Cl)cc2)nc2c1c(=O)[nH]c(=O)n2C | 18.5% |
| CCOC(=O)N1CCN(Cc2nc(-c3cccc(C)c3)no2)CC1 | -33.6% |
| CCOc1cc(C2C(C#N)=C(N)Oc3n[nH]c(C)c32)ccc1OCCN1CCOCC1 (centres unmarked) | 11.9% |
| COc1ccc(-c2nsc3c(N4CCN(S(=O)(=O)c5ccccc5F)CC4)ncnc23)cc1 | -17.4% |
| O=C(CSc1nnc(-c2ccc(NS(=O)(=O)c3ccccc3)cc2)o1)NCC1CCCO1 (centres unmarked) | 16.2% |
| COc1cccc(-c2cn3nc4c(nc3n2)CCCC4)c1 | -41.9% |
| CC(C)[C@H](NC(=O)c1ccco1)C(=O)OCC(=O)NC12CC3CC(CC(C3)C1)C2 | -18.7% |
| CCOC(=O)N1CCC(NC(=O)CC(NS(=O)(=O)c2ccc(Cl)cc2)c2ccco2)CC1 (centres unmarked) | -53% |
| CC(=O)Nc1cccc(N2CCCC2=O)c1 | -1.04% |
| CC1=C(C(N)=O)C(c2cccs2)NC(=O)N1 (centres unmarked) | -1.46% |
| CCc1ccc(-c2nc(CS(=O)CC(=O)NCCc3ccccc3)c(C)o2)cc1 (centres unmarked) | 6.8% |
| N#CCCn1ccc(NC(=O)c2ccc(Cl)cc2)n1 | 10.8% |
| COc1ccc2c(c1OC)C(=O)N(c1ncn[nH]1)C2 | 13.5% |
| O=C(CCC1CCCCC1)NCc1ccccn1 | -10.8% |
| O=C(/C=C/c1ccc(F)cc1)NCCNC(=O)/C=C/c1ccc(F)cc1 | 35.7% |
| O=C(NC1CCCCC1)NC1CC2CCC(C1)N2C(=S)NCc1ccco1 (centres unmarked) | -6.63% |

| Compound | hERG current change (%, negative = inhibition) at 10uM |
| --- | --- |
| COc1cccc(C(=O)NNC(=O)C2CC(C)=C(C)CC2C(=O)O)c1 (centres unmarked) | 13% |
| OCC1CCCN(C2CCN(Cc3nc(Cc4cccc(C(F)(F)F)c4)no3)CC2)C1 (centres unmarked) | -74.1% |
| CC(=O)Oc1cc2c(C(=O)NCc3ccncc3)c(C)oc2c2ccccc12 | -12.1% |
| Cc1nc2c(c(C)nn2-c2ccccc2)c(C)c1CCC(=O)N1CCC2(CC1)OCCO2 | -32.3% |
| O=C(Cc1ccc(F)cc1)c1ccc(O)cc1O | -15.5% |
| CCn1cc(C(=O)N2CCN(c3ccccc3F)CC2)c(=O)c2ccc(C)nc21 | -5.94% |
| O=C(CSc1oc(-c2ccco2)nc1S(=O)(=O)c1ccc(F)cc1)NCC1CCCO1 (centres unmarked) | -20% |
| CCc1nnc(NC(=O)CCC(=O)N2CCN(c3cc(Cl)ccc3C)CC2)s1 | -13.4% |
| CC(=O)Oc1ccc(NC(=O)CSc2ccccc2)cc1 | -3.08% |
| CCN(CC)CCN(C(=O)C1=COCCO1)c1nc2cc3c(cc2s1)OCO3.Cl | -72% |
| COc1ccc(/C(C)=N/Nc2ccccc2Cl)c(O)c1 | 16.5% |
| O=C(NCC1CCCCC1)c1ccccc1[N+](=O)[O-] | 17.6% |
| COc1c(-c2ccccc2)oc2c(ccc3occc32)c1=O | 9.21% |
| Cc1ccc(NC(=O)NC(=O)CN2CCN(c3ccc(O)cc3)CC2)c(C)c1 | 10.2% |
| O=C(CSc1nnc(CCc2nc3ccccc3[nH]2)n1-c1ccccc1)NCc1ccco1 | 0.0218% |
| COC(=O)c1ccc(NC2=CC(=O)CC(C)(C)C2)cc1 | 1.48% |
| CCOC(=O)c1cc(-c2csc(-c3cccc(Cl)c3)n2)on1 | 18.8% |
| Cc1cc(Cl)ccc1NC(=O)COC(=O)c1c(C)noc1C | 13.9% |
| CC(OC(=O)C1=COCCO1)C(=O)Nc1ccc(Cl)cn1 (centres unmarked) | 5.14% |
| CN(C)c1ccc(NC(=O)Nc2csc3ccccc23)cc1 | 18.4% |
| CCC1(c2ccccc2)NC(=O)N(CC(=O)Nc2cc(Cl)ccc2N2CCOCC2)C1=O (centres unmarked) | -11.2% |
| O=C(COC(=O)C1CCC1)NCc1ccccc1 | 6.8% |
| O=c1[nH]c(O)c(/C=C2\C=Nc3ccccc32)[nH]1 | 20.9% |

| Compound | hERG current change (%, negative = inhibition) at 10uM |
| --- | --- |
| O=C(N/N=C/c1ccc2c(c1)OCO2)c1cccnc1 | 32.5% |
| Cc1cccc(NC(=O)c2ccc(CN3CCc4ccccc4C3)cc2)c1C | 4.49% |
| O=C(CCN1CCc2ccccc2C1)Nc1ccccc1 | -24.2% |
| Cc1nc2ccccn2c1C(=O)CSc1cccc(Cl)c1 | -27.4% |
| CCSc1cc(C)nc2c(-c3ccccc3)c(C)nn12 | -6.25% |
| Cc1ccc2ncccc2c1 | 8.75% |
| COc1ccc(NC(=O)CCN2CCCCCC2)cc1 | -12.3% |
| Cc1cc(N2CCN(c3ccc(F)cc3)CC2)nc2cc(O)ccc12 | -75.9% |
| N#Cc1ccc2ccn(CC(=O)NCc3ccco3)c2c1 | -6.81% |
| Cc1cccc(C(=O)Nc2cc(C)ccc2NC(=O)COc2ccccc2)c1 | 10.8% |
| CC(C)c1ccc(OCC(=O)NC(C)c2ccccc2)cc1 (centres unmarked) | 1% |
| O=C(NCCN1C(=O)S/C(=C\c2cccs2)C1=O)[C@H](Cc1ccccc1)N1C(=O)c2ccccc2C1=O | -2.44% |
| CCNC(=S)Nc1ccc(Cl)cc1 | 8.45% |
| Cc1sc2ccc3sccc3c2[n+]1C.[I-] | 10.6% |
| S=C(NCC1CCCO1)NC1CCCCC1 (centres unmarked) | 20.3% |
| Cn1cc(S(=O)(=O)N2CCOCC2)cc1C(=O)NCCc1ccccc1 | -13.4% |
| O=C(Oc1ccc2ccc(=O)oc2c1)c1ccco1 | -73.1% |
| NNC(=O)c1ccc2nc(-c3ccc(Br)cc3)cn2c1 | -33.6% |
| O=C(O)CNS(=O)(=O)c1ccc2c(c1)Cc1cc(S(=O)(=O)NCC(=O)O)ccc1-2 | 2.59% |
| Cc1ccc(C(=O)Nc2ccccc2C(=O)N2CCCCC2C)cc1 (centres unmarked) | -6.37% |
| CC(C)(/C=N/O)/[N+]([O-])=C/c1ccco1 | 2.94% |
| CSc1ccccc1NC(=O)CN1c2ccccc2CC1C (centres unmarked) | 1.77% |
| CCn1c(SCC(=O)NC2CCCC2)nnc1-c1c[nH]c2ccccc12 | 1.48% |

| Compound | hERG current change (%, negative = inhibition) at 10uM |
| --- | --- |
| Nc1cc(Cl)cc(Cl)c1 | 10.2% |
| O=C1CC(C(=O)Nc2cccc(Cl)c2)n2ncnc2N1 (centres unmarked) | 27.7% |
| O=C(Nc1nc2ccccc2s1)C1CC(=O)N(c2ccccc2)C1 (centres unmarked) | -11.2% |
| CC1(C)C(=O)NCCN1C(=O)c1ccc2nc(Cc3ccccc3F)oc2c1 | 9.49% |
| O=C(O)CCCN=CC1=C(O)CNC1=O | 21% |
| O=C(NC1CCCC1)C(c1cccnc1)N(C(=O)c1ccco1)c1ccc(F)cc1 (centres unmarked) | 13.8% |
| COc1ccc(/C=N\Nc2ncc(F)c(N3CCOCC3)n2)cc1OC | -31.1% |
| COc1cccc(-n2cnnc2SCC(=O)NC2CC2)c1 | 17.5% |
| O=C(NNC(=O)c1ccc2c(=O)n3c(nc2c1)CCC3)c1cccc(Cl)c1 | -8.21% |
| NC(=S)Nc1ccc(S(=O)(=O)c2ccc(NC(N)=S)cc2)cc1 | 28.1% |
| COC(=O)c1ccc(CSc2nc3cc(Cl)ccc3o2)cc1 | 12.9% |
| COc1cc(C(=O)N/N=C/C23CC[C@@H](O)CC2(O)CC[C@@H]2[C@@H]3CCC3(C)C(C4=CC(=O)OC4)CCC23O)ccc1O (some centres unmarked) | 27.4% |
| NC(=S)c1ccc(C(N)=S)o1 | 15.1% |
| CC(=O)NC(CC(=O)OC(C)C(=O)Nc1ccc(Cl)cn1)c1ccccc1 (centres unmarked) | -3.51% |
| Cc1ccc(Cl)cc1N1CCN(C(=O)C2CCC(=O)N2C(C)C)CC1 (centres unmarked) | -5.02% |
| O=S(=O)(c1ccc2c(c1)OCCO2)N1CCN(c2cccc(Cl)c2)CC1 | 3.55% |
| CN(Cc1ccc(O)cc1)C1CCCCC1 | -16.7% |
| COc1ccc(/C=C/C(=O)Nc2ccc(S(=O)(=O)N3CCOCC3)cc2)c(OC)c1 | -3.51% |
| COc1cccc(Nc2nc3ccc(OC)cc3s2)c1 | 8.8% |
| Cc1ccc(-c2csc(NC(=O)c3ccc(F)cc3)c2C(=O)O)cc1 | 34.7% |
| O=C(O)c1ccc(N2C(=O)/C(=C/C=C/c3ccccc3)SC2=S)cc1 | 0.894% |
| O=C(Nc1cccc(O)c1)C(Cc1ccccc1)N1C(=O)c2cccc3cccc(c23)C1=O (centres unmarked) | 11% |
| COC(=O)c1cc(S(=O)(=O)N(C)C2CCCCC2)oc1C | -3.75% |
